Reference: patent publication US20230061378A1 (SUZHOU ALPHAMAB, published 2023)
Residue numbers refer to the chain shown, from its start.

B1: iPT15n7Fc (Fc fusion)
chain: QVQLQESGGGSVQAGGSLRLSCAASGYTYGSYCMAWFRQAPGKEREGVAGVDSDGTTRYADSVKGRFTISKDNAENTLYLQMNSLKPEDTSMYYCAAGVCGTGGSWYEGDAGLFMYEFAYWGQGTQVTVSSQVQLQESGGGSVQPGGSLRLSCAASGYTYSSYCMGWFRQAPGKEREGVAAIDSDGRTSYADFVKGRFTISKDNAKNTLYLQMNSLKPEDTAKYYCATEQRIGGSWYDLCGGADFGYWGQGTQVTVSS[human IgG1 Fc cut from this listing]
notes: also called iPT1507Fc
B2: iPT7n22Fc (Fc fusion)
chain: QVQLQESGGGSVQPGGSLRLSCAASGYTYSSYCMGWFRQAPGKEREGVAAIDSDGRTSYADFVKGRFTISKDNAKNTLYLQMNSLKPEDTAKYYCATEQRIGGSWYDLCGGADFGYWGQGTQVTVSSQVQLQESGGGSVQAGGSLQLSCAATDITYSRCMAWFRQAPGKSREGVAALSTNGGSTWYADSVKGRFTISRDGAKNTIYLQMRSLKPEDTAMYYCADSSFFSCRDCSGGDCPRSRDYKYWGQGTQVTVSS[human IgG1 Fc cut from this listing]
B3: iPT22n7Fc (Fc fusion)
chain: QVQLQESGGGSVQAGGSLQLSCAATDITYSRCMAWFRQAPGKSREGVAALSTNGGSTWYADSVKGRFTISRDGAKNTIYLQMRSLKPEDTAMYYCADSSFFSCRDCSGGDCPRSRDYKYWGQGTQVTVSSQVQLQESGGGSVQPGGSLRLSCAASGYTYSSYCMGWFRQAPGKEREGVAAIDSDGRTSYADFVKGRFTISKDNAKNTLYLQMNSLKPEDTAKYYCATEQRIGGSWYDLCGGADFGYWGQGTQVTVSS[human IgG1 Fc cut from this listing]
B4: iPT7n42Fc (Fc fusion)
chain: QVQLQESGGGSVQPGGSLRLSCAASGYTYSSYCMGWFRQAPGKEREGVAAIDSDGRTSYADFVKGRFTISKDNAKNTLYLQMNSLKPEDTAKYYCATEQRIGGSWYDLCGGADFGYWGQGTQVTVSSQVQLQESGGGSVQAGGSLRLSCAASGYTYSDVCMGWFRQAPGKEREGVAAIDSVGNTNYADSVKGRFTISKDNAKNTLYLQMNSLKPEDTAMYYCAAQRCLGWVPLVPHEYGFWGQGTQVTVSS[human IgG1 Fc cut from this listing]
B5: iPT15n42Fc (Fc fusion)
chain: QVQLQESGGGSVQAGGSLRLSCAASGYTYGSYCMAWFRQAPGKEREGVAGVDSDGTTRYADSVKGRFTISKDNAENTLYLQMNSLKPEDTSMYYCAAGVCGTGGSWYEGDAGLFMYEFAYWGQGTQVTVSSQVQLQESGGGSVQAGGSLRLSCAASGYTYSDVCMGWFRQAPGKEREGVAAIDSVGNTNYADSVKGRFTISKDNAKNTLYLQMNSLKPEDTAMYYCAAQRCLGWVPLVPHEYGFWGQGTQVTVSS[human IgG1 Fc cut from this listing]
notes: also called iPT15042Fc
B6: iPT7n15Fc (Fc fusion)
chain: QVQLQESGGGSVQPGGSLRLSCAASGYTYSSYCMGWFRQAPGKEREGVAAIDSDGRTSYADFVKGRFTISKDNAKNTLYLQMNSLKPEDTAKYYCATEQRIGGSWYDLCGGADFGYWGQGTQVTVSSQVQLQESGGGSVQAGGSLRLSCAASGYTYGSYCMAWFRQAPGKEREGVAGVDSDGTTRYADSVKGRFTISKDNAENTLYLQMNSLKPEDTSMYYCAAGVCGTGGSWYEGDAGLFMYEFAYWGQGTQVTVSS[human IgG1 Fc cut from this listing]
notes: also called iPT7n15Fe
B7: iPT42n7Fc (Fc fusion)
chain: QVQLQESGGGSVQAGGSLRLSCAASGYTYSDVCMGWFRQAPGKEREGVAAIDSVGNTNYADSVKGRFTISKDNAKNTLYLQMNSLKPEDTAMYYCAAQRCLGWVPLVPHEYGFWGQGTQVTVSSQVQLQESGGGSVQPGGSLRLSCAASGYTYSSYCMGWFRQAPGKEREGVAAIDSDGRTSYADFVKGRFTISKDNAKNTLYLQMNSLKPEDTAKYYCATEQRIGGSWYDLCGGADFGYWGQGTQVTVSS[human IgG1 Fc cut from this listing]
B8: iPT12n15Fc (Fc fusion)
chain: QVQLQESGGGSVQAGGSLRLSCAASGYTYSSYCMGWFRQAPGKEREGVAGIESDGSTSYADSVKGRFSISKDNVKNTLYLQMNTLKPEDTGIYYCAVQSPLPGGSWYSLCGGADFGYWGQGTQVTVSSQVQLQESGGGSVQAGGSLRLSCAASGYTYGSYCMAWFRQAPGKEREGVAGVDSDGTTRYADSVKGRFTISKDNAENTLYLQMNSLKPEDTSMYYCAAGVCGTGGSWYEGDAGLFMYEFAYWGQGTQVTVSS[human IgG1 Fc cut from this listing]
B9: iPT12n42Fc (Fc fusion)
chain: QVQLQESGGGSVQAGGSLRLSCAASGYTYSSYCMGWFRQAPGKEREGVAGIESDGSTSYADSVKGRFSISKDNVKNTLYLQMNTLKPEDTGIYYCAVQSPLPGGSWYSLCGGADFGYWGQGTQVTVSSQVQLQESGGGSVQAGGSLRLSCAASGYTYSDVCMGWFRQAPGKEREGVAAIDSVGNTNYADSVKGRFTISKDNAKNTLYLQMNSLKPEDTAMYYCAAQRCLGWVPLVPHEYGFWGQGTQVTVSS[human IgG1 Fc cut from this listing]
B10: iPT12diFc (Fc fusion)
chain: QVQLQESGGGSVQAGGSLRLSCAASGYTYSSYCMGWFRQAPGKEREGVAGIESDGSTSYADSVKGRFSISKDNVKNTLYLQMNTLKPEDTGIYYCAVQSPLPGGSWYSLCGGADFGYWGQGTQVTVSSQVQLQESGGGSVQAGGSLRLSCAASGYTYSSYCMGWFRQAPGKEREGVAGIESDGSTSYADSVKGRFSISKDNVKNTLYLQMNTLKPEDTGIYYCAVQSPLPGGSWYSLCGGADFGYWGQGTQVTVSS[human IgG1 Fc cut from this listing]
notes: also called iPTI2diFc
B11: iPT15n12Fc (Fc fusion)
chain: QVQLQESGGGSVQAGGSLRLSCAASGYTYGSYCMAWFRQAPGKEREGVAGVDSDGTTRYADSVKGRFTISKDNAENTLYLQMNSLKPEDTSMYYCAAGVCGTGGSWYEGDAGLFMYEFAYWGQGTQVTVSSQVQLQESGGGSVQAGGSLRLSCAASGYTYSSYCMGWFRQAPGKEREGVAGIESDGSTSYADSVKGRFSISKDNVKNTLYLQMNTLKPEDTGIYYCAVQSPLPGGSWYSLCGGADFGYWGQGTQVTVSS[human IgG1 Fc cut from this listing]
B12: iPT21Fc (Fc fusion)
chain: QVQLQESGGGSVQAGGSLRLSCAASGYPYSRNCMAWFRQAPEKQREGVATIYNGDGTPYYADSVKGRFTISQDNAKNTVYLQMNSLKPDDTAIYYCAAARGCSLRTWSDQNLYAYWGQGTQVTVSS[human IgG1 Fc cut from this listing]
B13: iPT28Fc (Fc fusion)
chain: QVQLQESGGGSVQAGGSLRLSCAASGYTYTSYCMGWFRQAPGKEREGVAGIDRDGIAVYADSVKGRFTVSKDNVEDTLSLQMNSLKPEDTAMYYCAADYRRWCRDEYEYWGQGTQVTVSS[human IgG1 Fc cut from this listing]
B14: huPT7v2Fc (Fc fusion)
chain: QVQLVESGGGLVQPGGSLRLSCAASGYTYSSYCMGWFRQAPGKEREGVAAIDSDGRTSYADFVKGRFTISRDNSKNTLYLQMNSLRAEDTAVYYCATEQRIGGSWYDLCGGADFGYWGQGTLVTVSS[human IgG1 Fc cut from this listing]
B15: huPT7v7Fc (Fc fusion)
VHH-Fc: B14 chain with R71K
B16: huPT7v9Fc (Fc fusion)
VHH-Fc: B14 chain with L11S, P14A, E44G, R45L
B17: huPT7v10Fc (Fc fusion)
VHH-Fc: B14 chain with L11S, P14A
B18: huPT42v1Fc (Fc fusion)
chain: QVQLVESGGGSVQAGGSLRLSCAASGYTYSDVCMGWFRQAPGKEREGVAAIDSVGNTNYADSVKGRFTISKDNSKNTLYLQMNSLRAEDTAVYYCAAQRCLGWVPLVPHEYGYWGQGTLVTVSS[human IgG1 Fc cut from this listing]
B19: huPT42v3Fc (Fc fusion)
chain: B18 chain with E44G, R45L
B20: huPT42v7Fc (Fc fusion)
chain: B18 chain with S11L, A14P
notes: also called huPT427F0
B21: huPT42v10Fc (Fc fusion)
chain: B18 chain with K71R
notes: also called huPT42v1OFc
B22: huPT42v11Fc (Fc fusion)
chain: B18 chain with S11L, A14P, R86K, A87P
notes: also called huPT42vlIFo

Target: T1, pertussis toxin (PT) (Bordetella pertussis)
Assay: cell-based or functional assay

Binder | concentration with partial neutralizing (CHO-K1 cells with PT toxin) | Concentration for completely neutralizing PTToxin
B1 | 5 µg/mL | –
B2 | – | 5 µg/mL
B3 | – | 100 µg/mL
B4 | 2.5 µg/mL | –
B5 | – | 100 µg/mL
B6 | – | 0.1 µg/mL
B7 | – | 0.05 µg/mL
B8 | – | 0.111 µg/mL
B9 | – | 0.333 µg/mL
B10 | 0.333 µg/mL | –
B11 | – | 0.111 µg/mL

Target: T1, pertussis toxin (PT)
Assay: BLI (Octet), Fc fusion on AHC biosensor, PT 6.25-100 nM in solution, 1:1 model

Binder | Kd | koff | kon
B12 | 0.537 nM | 0.000278 s⁻¹ | 517000 M⁻¹ s⁻¹
B13 | 0.278 nM | 0.000111 s⁻¹ | 399000 M⁻¹ s⁻¹

Target: T1, pertussis toxin (PT)
Assay: BLI, tetravalent Fc fusion on AHC biosensor, PTpuri 6.25-100 nM in solution

Binder | Kd | koff | kon
B1 | < 0.001 nM | < 1e-07 s⁻¹ | 107000 M⁻¹ s⁻¹
B2 | 0.223 nM | 0.000156 s⁻¹ | 701000 M⁻¹ s⁻¹
B3 | 0.24 nM | 0.000138 s⁻¹ | 573000 M⁻¹ s⁻¹
B4 | 0.301 nM | 0.000182 s⁻¹ | 607000 M⁻¹ s⁻¹
B5 | 0.167 nM | 0.000121 s⁻¹ | 722000 M⁻¹ s⁻¹
B6 | – | 5.47e-05 s⁻¹ | 105000 M⁻¹ s⁻¹
B7 | 0.267 nM | 0.000171 s⁻¹ | 641000 M⁻¹ s⁻¹
B8 | 0.263 nM | 0.000149 s⁻¹ | 567000 M⁻¹ s⁻¹
B9 | 0.242 nM | 0.000129 s⁻¹ | 535000 M⁻¹ s⁻¹
B10 | 0.267 nM | 8.89e-05 s⁻¹ | 334000 M⁻¹ s⁻¹
B11 | 0.183 nM | 0.000112 s⁻¹ | 614000 M⁻¹ s⁻¹

Target: T1, pertussis toxin (PT)
Assay: ELISA, PT coated 0.3 µg/well, anti-human IgG Fc-HRP, four-parameter fit

Binder | EC50
B14 | 0.0337 µg/mL
B15 | 0.036 µg/mL
B16 | 0.0346 µg/mL
B17 | 0.0356 µg/mL
B18 | 0.0258 µg/mL
B19 | 0.0262 µg/mL
B20 | 0.0229 µg/mL
B21 | 0.0255 µg/mL
B22 | 0.025 µg/mL
